Drawing on publication PMC9911399, “Two distinct binding modes provide the RNA-binding protein RbFox with extraordinary sequence specificity”, this text covers binding signal for 31 molecules.

The labels stand for the following.
T1: RBFOX1 RRM RbFoxmut (Fox-RRM*) (Homo sapiens, UniProt Q9NWB1 109-208, R118D;E147R;N151S;E152T)
T1 sequence: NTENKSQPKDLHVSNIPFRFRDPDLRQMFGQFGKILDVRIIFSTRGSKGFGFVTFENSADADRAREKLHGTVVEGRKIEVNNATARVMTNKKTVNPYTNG

B1: CGUAAUG (DNA:RNA)
RNA: GGGAGACCGGAAUUCAGAUUGUCCCGUAAUGUUAAAUCCCGUCGUAGCCACCA
DNA 1: CAATCTGAATTCCGGTCTCCC
DNA 2: TGGTGGCTACGACGGGATT
B2: UAUGUCU (DNA:RNA)
RNA: B1 RNA with C25U, G26A, A28G, A29U, U30C, G31U
DNA 1: CAATCTGAATTCCGGTCTCCC
DNA 2: TGGTGGCTACGACGGGATT
B3: GGUUCGU (DNA:RNA)
RNA: B1 RNA with C25G, A28U, A29C, U30G, G31U
DNA 1: CAATCTGAATTCCGGTCTCCC
DNA 2: TGGTGGCTACGACGGGATT
B4: CCUGUCG (DNA:RNA)
RNA: B1 RNA with G26C, A28G, A29U, U30C
DNA 1: CAATCTGAATTCCGGTCTCCC
DNA 2: TGGTGGCTACGACGGGATT
B5: AUUAUAU (DNA:RNA)
RNA: B1 RNA with C25A, G26U, A29U, U30A, G31U
DNA 1: CAATCTGAATTCCGGTCTCCC
DNA 2: TGGTGGCTACGACGGGATT
B6: AGAGAAA (DNA:RNA)
RNA: B1 RNA with C25A, U27A, A28G, U30A, G31A
DNA 1: CAATCTGAATTCCGGTCTCCC
DNA 2: TGGTGGCTACGACGGGATT
B7: CGUGGCU (DNA:RNA)
RNA: B1 RNA with A28G, A29G, U30C, G31U
DNA 1: CAATCTGAATTCCGGTCTCCC
DNA 2: TGGTGGCTACGACGGGATT
B8: UUUUAUU (DNA:RNA)
RNA: B1 RNA with C25U, G26U, A28U, G31U
DNA 1: CAATCTGAATTCCGGTCTCCC
DNA 2: TGGTGGCTACGACGGGATT
B9: CACGCAU (DNA:RNA)
RNA: B1 RNA with G26A, U27C, A28G, A29C, U30A, G31U
DNA 1: CAATCTGAATTCCGGTCTCCC
DNA 2: TGGTGGCTACGACGGGATT
B10: UACUGCC (DNA:RNA)
RNA: GGGAGACCGGAAUUCAGAUUGUCCUACUGCCUUAAAUCCCGUCGUAGCCACCA
DNA 1: CAATCTGAATTCCGGTCTCCC
DNA 2: TGGTGGCTACGACGGGATT
B11: GUCAGAU (DNA:RNA)
RNA: B10 RNA with U25G, A26U, U28A, C30A, C31U
DNA 1: CAATCTGAATTCCGGTCTCCC
DNA 2: TGGTGGCTACGACGGGATT
B12: ACCUGAA (DNA:RNA)
RNA: B10 RNA with U25A, A26C, C30A, C31A
DNA 1: CAATCTGAATTCCGGTCTCCC
DNA 2: TGGTGGCTACGACGGGATT
B13: ACCCGAU (DNA:RNA)
RNA: B10 RNA with U25A, A26C, U28C, C30A, C31U
DNA 1: CAATCTGAATTCCGGTCTCCC
DNA 2: TGGTGGCTACGACGGGATT
B14: UCCGCUC (DNA:RNA)
RNA: B10 RNA with A26C, U28G, G29C, C30U
DNA 1: CAATCTGAATTCCGGTCTCCC
DNA 2: TGGTGGCTACGACGGGATT
B15: AUAGGCG (DNA:RNA)
RNA: B10 RNA with U25A, A26U, C27A, U28G, C31G
DNA 1: CAATCTGAATTCCGGTCTCCC
DNA 2: TGGTGGCTACGACGGGATT
B16: CCCGAGG (DNA:RNA)
RNA: B1 RNA with G26C, U27C, A28G, U30G
DNA 1: CAATCTGAATTCCGGTCTCCC
DNA 2: TGGTGGCTACGACGGGATT
B17: GCUAAGA (DNA:RNA)
RNA: B1 RNA with C25G, G26C, U30G, G31A
DNA 1: CAATCTGAATTCCGGTCTCCC
DNA 2: TGGTGGCTACGACGGGATT
B18: CGAUUCA (DNA:RNA)
RNA: B1 RNA with U27A, A28U, A29U, U30C, G31A
DNA 1: CAATCTGAATTCCGGTCTCCC
DNA 2: TGGTGGCTACGACGGGATT
B19: CUAAAGG (DNA:RNA)
RNA: B1 RNA with G26U, U27A, U30G
DNA 1: CAATCTGAATTCCGGTCTCCC
DNA 2: TGGTGGCTACGACGGGATT
B20: UAUUUCA (DNA:RNA)
RNA: B10 RNA with C27U, G29U, C31A
DNA 1: CAATCTGAATTCCGGTCTCCC
DNA 2: TGGTGGCTACGACGGGATT
B21: AUAGUAC (DNA:RNA)
RNA: B10 RNA with U25A, A26U, C27A, U28G, G29U, C30A
DNA 1: CAATCTGAATTCCGGTCTCCC
DNA 2: TGGTGGCTACGACGGGATT
B22: ACUUCUG (DNA:RNA)
RNA: B1 RNA with C25A, G26C, A28U, A29C
DNA 1: CAATCTGAATTCCGGTCTCCC
DNA 2: TGGTGGCTACGACGGGATT
B23: GUGAGAC (DNA:RNA)
RNA: B10 RNA with U25G, A26U, C27G, U28A, C30A
DNA 1: CAATCTGAATTCCGGTCTCCC
DNA 2: TGGTGGCTACGACGGGATT
B24: AAAAAGC (DNA:RNA)
RNA: B1 RNA with C25A, G26A, U27A, U30G, G31C
DNA 1: CAATCTGAATTCCGGTCTCCC
DNA 2: TGGTGGCTACGACGGGATT
B25: GCCCACC (DNA:RNA)
RNA: B10 RNA with U25G, A26C, U28C, G29A
DNA 1: CAATCTGAATTCCGGTCTCCC
DNA 2: TGGTGGCTACGACGGGATT
B26: CUUUAUG (DNA:RNA)
RNA: B1 RNA with G26U, A28U
DNA 1: CAATCTGAATTCCGGTCTCCC
DNA 2: TGGTGGCTACGACGGGATT
B27: UGGGCCU (DNA:RNA)
RNA: B10 RNA with A26G, C27G, U28G, G29C, C31U
DNA 1: CAATCTGAATTCCGGTCTCCC
DNA 2: TGGTGGCTACGACGGGATT
B28: CCGGGUU (DNA:RNA)
RNA: B1 RNA with G26C, U27G, A28G, A29G, G31U
DNA 1: CAATCTGAATTCCGGTCTCCC
DNA 2: TGGTGGCTACGACGGGATT
B29: GCAGUUG (DNA:RNA)
RNA: B1 RNA with C25G, G26C, U27A, A28G, A29U
DNA 1: CAATCTGAATTCCGGTCTCCC
DNA 2: TGGTGGCTACGACGGGATT
B30: CAUCGAG (DNA:RNA)
RNA: B1 RNA with G26A, A28C, A29G, U30A
DNA 1: CAATCTGAATTCCGGTCTCCC
DNA 2: TGGTGGCTACGACGGGATT
B31: CUAGCCU (DNA:RNA)
RNA: B1 RNA with G26U, U27A, A28G, A29C, U30C, G31U
DNA 1: CAATCTGAATTCCGGTCTCCC
DNA 2: TGGTGGCTACGACGGGATT

Positions count from the first letter of the chain named. The list shows a part of the results.

This assay deals with T1, RBFOX1 RRM RbFoxmut (Fox-RRM*). As to the kind of experiment: EMSA; HiTS-Eq, 1 nM pool, 10 min; buffer printed only for the single-RNA assays: 10 mM Tris pH 7.5, 150 mM NaCl, 3.4 mM EDTA, 0.001% NP-40, 30 C. The following applies: tags: His6 N-terminal (pET28a); label: 5' 32P. In outline: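 Relative association constants, normalised to the cognate motif, were derived by comparing read counts of each RNA species with those of the control reaction. The RNA sequenced was the free fraction, separated by 8% native PAGE after a 10 min equilibration in 50 µL of 1 nM 5′-radiolabelled RNA (7 randomized nucleotides) with increasing concentrations of purified wild-type or mutant RbFox RRM.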
On the technique in general: In EMSA bound probe runs differently from free probe, usually more slowly.
Consider B1, for which the binding signal was 0.157 KA relative to UGCAUGU.
In the case of B2 it was 0.0708 KA relative to UGCAUGU; in that of B3, 0.29 KA relative to UGCAUGU.
In the case of B4 it was 0.107 KA relative to UGCAUGU; in that of B5, 0.137 KA relative to UGCAUGU.
For B6 the value was 0.0972 KA relative to UGCAUGU; for B7, 0.111 KA relative to UGCAUGU.
B8: the binding signal is 0.113 KA relative to UGCAUGU.
For B9 the value was 0.147 KA relative to UGCAUGU; for B10, 0.217 KA relative to UGCAUGU.
In the case of B11 it was 0.0887 KA relative to UGCAUGU; in that of B12, 0.0825 KA relative to UGCAUGU.
For B13, the binding signal was 0.106 KA relative to UGCAUGU.
Regarding B14, the binding signal is 0.0521 KA relative to UGCAUGU.
For B15 the value was 0.122 KA relative to UGCAUGU.
Take B16: the binding signal is 0.0701 KA relative to UGCAUGU.
In the case of B17 it was 0.12 KA relative to UGCAUGU.
In the case of B18 it was 0.102 KA relative to UGCAUGU; in that of B19, 0.0795 KA relative to UGCAUGU; in that of B20, 0.117 KA relative to UGCAUGU.
For B21 the value was 0.131 KA relative to UGCAUGU; for B22, 0.0582 KA relative to UGCAUGU.
Consider B23, for which the binding signal is 0.08 KA relative to UGCAUGU.
On to B24, for which the binding signal is 0.0699 KA relative to UGCAUGU.
For B25 the value was 0.0889 KA relative to UGCAUGU; for B26, 0.158 KA relative to UGCAUGU.
With B27, the binding signal is 0.102 KA relative to UGCAUGU.
For B28 the value was 0.112 KA relative to UGCAUGU.
On to B29, for which the binding signal was 0.103 KA relative to UGCAUGU.
In the case of B30 it was 0.0932 KA relative to UGCAUGU; in that of B31, 0.0877 KA relative to UGCAUGU.
